Binding signal data for 31 sequences are collected here from paper PMC12820563, “FoxP3 forms a head-to-head dimer in vivo and stabilizes its multimerization on adjacent microsatellites”.

Some of the results follow.

The assay has as its target T1, MBP-FoxP1dN (Mus musculus, UniProt P58462 326-579).
T1 sequence: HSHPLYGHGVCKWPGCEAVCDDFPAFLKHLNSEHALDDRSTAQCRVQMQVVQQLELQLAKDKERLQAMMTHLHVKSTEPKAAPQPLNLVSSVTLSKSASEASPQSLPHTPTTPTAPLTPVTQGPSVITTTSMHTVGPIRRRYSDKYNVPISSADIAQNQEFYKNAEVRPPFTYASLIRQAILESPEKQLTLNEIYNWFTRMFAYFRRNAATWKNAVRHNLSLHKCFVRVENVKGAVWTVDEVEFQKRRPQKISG
Nature of the assay: PD-seq (MBP pull-down with sequencing); 20 mM Tris-HCl pH 7.5, 100 mM NaCl, 1.5 mM MgCl2, 0.4 uM protein, 0.1 uM dsDNA library, 30 min, room temperature, amylose pull-down; high values mean tight binding. The following applies: protein: recombinant; tags: His6-MBP; chain copies: 2; dsDNA, one strand shown. Summed up: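 Amylose resin was used to capture complexes formed during 30 min at room temperature in Tris pH 7.5 buffer with NaCl and MgCl2 between 0.4 µM His6-MBP-tagged mouse FoxP3 or FoxP1 fragment lacking the N-terminus, expressed in E. coli, and 0.1 µM Klenow-filled double-stranded degenerate DNA library. After three washes, the DNA was released with proteinase K, barcoded by PCR and sequenced on Illumina. Binding is pooled-replicate reads-per-million enrichment, pull-down over input.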
On to “GATGATTGTTCTCCCAGCTGATGAATTAACTTGCTCGAGTAAACAAATTTTCCTAATCTTTCTGTTCAAGCGCCATCTAC”, for which the binding signal was 0.892 RPM ratio (pull-down/input).

As for “GATGATTGTTCTCCCAGCTGATGAATTAATTTGGTCGAGTAAACAAATTTTCCTAATCTTTCTGTTCAAGCGCCATCTAC”, the binding signal is 0.887 RPM ratio (pull-down/input).

Consider “GATGATTGTTCTCCCAGCTGATGAATTAATGGGCTCGAGTAAACAAATTTTCCTAATCTTTCTGTTCAAGCGCCATCTAC”, for which the binding signal was 0.848 RPM ratio (pull-down/input).

Consider “GATGATTGTTCTCCCAGCTGATGAATTGGTGTGATCGAGTAAACAAATTTTCCTAATCTTTCTGTTCAAGCGCCATCTAC”, for which the binding signal is 1.09 RPM ratio (pull-down/input).

Take “GATGATTGTTCTCCCAGCTGATGAATTACTGGTTTCGAGTAAACAAATTTTCCTAATCTTTCTGTTCAAGCGCCATCTAC”: the binding signal was 1.12 RPM ratio (pull-down/input).

Turning to “GATGATTGTTCTCCCAGCTGATGAATTGTCTGTATCGAGTAAACAAATTTTCCTAATCTTTCTGTTCAAGCGCCATCTAC”, the binding signal was 1.07 RPM ratio (pull-down/input).

Turning to “GATGATTGTTCTCCCAGCTGATGAATTGACACGATCGAGTAAACAAATTTTCCTAATCTTTCTGTTCAAGCGCCATCTAC”, the binding signal was 1.2 RPM ratio (pull-down/input).

As to “GATGATTGTTCTCCCAGCTGATGAATTACGACGTTCGAGTAAACAAATTTTCCTAATCTTTCTGTTCAAGCGCCATCTAC”, the binding signal is 1.04 RPM ratio (pull-down/input).

Regarding “GATGATTGTTCTCCCAGCTGATGAATTGTCTCTGTCGAGTAAACAAATTTTCCTAATCTTTCTGTTCAAGCGCCATCTAC”, the binding signal is 0.977 RPM ratio (pull-down/input).

For the sequence “GATGATTGTTCTCCCAGCTGATGAATTAACGTAATCGAGTAAACAAATTTTCCTAATCTTTCTGTTCAAGCGCCATCTAC”, the binding signal was 1.59 RPM ratio (pull-down/input).

As for “GATGATTGTTCTCCCAGCTGATGAATTGGATGAGTCGAGTAAACAAATTTTCCTAATCTTTCTGTTCAAGCGCCATCTAC”, the binding signal was 0.883 RPM ratio (pull-down/input).

As to “GATGATTGTTCTCCCAGCTGATGAATTTGCGACATCGAGTAAACAAATTTTCCTAATCTTTCTGTTCAAGCGCCATCTAC”, the binding signal is 1.18 RPM ratio (pull-down/input).

As to “GATGATTGTTCTCCCAGCTGATGAATTTTAGCTCTCGAGTAAACAAATTTTCCTAATCTTTCTGTTCAAGCGCCATCTAC”, the binding signal was 0.796 RPM ratio (pull-down/input).

For “GATGATTGTTCTCCCAGCTGATGAATTCAGACGTTCGAGTAAACAAATTTTCCTAATCTTTCTGTTCAAGCGCCATCTAC”, the binding signal is 0.787 RPM ratio (pull-down/input).

Consider “GATGATTGTTCTCCCAGCTGATGAATTGACAGGCTCGAGTAAACAAATTTTCCTAATCTTTCTGTTCAAGCGCCATCTAC”, for which the binding signal is 1.03 RPM ratio (pull-down/input).

As to “GATGATTGTTCTCCCAGCTGATGAATTGTGGTATTCGAGTAAACAAATTTTCCTAATCTTTCTGTTCAAGCGCCATCTAC”, the binding signal was 1.22 RPM ratio (pull-down/input).

With “GATGATTGTTCTCCCAGCTGATGAATTCTACACCTCGAGTAAACAAATTTTCCTAATCTTTCTGTTCAAGCGCCATCTAC”, the binding signal is 0.866 RPM ratio (pull-down/input).

In the case of “GATGATTGTTCTCCCAGCTGATGAATTGCTGTTGTCGAGTAAACAAATTTTCCTAATCTTTCTGTTCAAGCGCCATCTAC”, the binding signal is 2.5 RPM ratio (pull-down/input).

Regarding “GATGATTGTTCTCCCAGCTGATGAATTACCAAGATCGAGTAAACAAATTTTCCTAATCTTTCTGTTCAAGCGCCATCTAC”, the binding signal is 0.971 RPM ratio (pull-down/input).

“GATGATTGTTCTCCCAGCTGATGAATTTCACTGCTCGAGTAAACAAATTTTCCTAATCTTTCTGTTCAAGCGCCATCTAC”: the binding signal was 0.772 RPM ratio (pull-down/input).

In the case of “GATGATTGTTCTCCCAGCTGATGAATTTTCCAAGTCGAGTAAACAAATTTTCCTAATCTTTCTGTTCAAGCGCCATCTAC”, the binding signal is 0.885 RPM ratio (pull-down/input).

Consider “GATGATTGTTCTCCCAGCTGATGAATTAGTATGATCGAGTAAACAAATTTTCCTAATCTTTCTGTTCAAGCGCCATCTAC”, for which the binding signal was 1.17 RPM ratio (pull-down/input).

For the sequence “GATGATTGTTCTCCCAGCTGATGAATTCAAGACGTCGAGTAAACAAATTTTCCTAATCTTTCTGTTCAAGCGCCATCTAC”, the binding signal is 0.855 RPM ratio (pull-down/input).

For the sequence “GATGATTGTTCTCCCAGCTGATGAATTGCACAATTCGAGTAAACAAATTTTCCTAATCTTTCTGTTCAAGCGCCATCTAC”, the binding signal is 1.44 RPM ratio (pull-down/input).

As to “GATGATTGTTCTCCCAGCTGATGAATTACGGTCATCGAGTAAACAAATTTTCCTAATCTTTCTGTTCAAGCGCCATCTAC”, the binding signal was 0.994 RPM ratio (pull-down/input).

Consider “GATGATTGTTCTCCCAGCTGATGAATTTGCGCGCTCGAGTAAACAAATTTTCCTAATCTTTCTGTTCAAGCGCCATCTAC”, for which the binding signal is 1.02 RPM ratio (pull-down/input).

With “GATGATTGTTCTCCCAGCTGATGAATTTACTTCTTCGAGTAAACAAATTTTCCTAATCTTTCTGTTCAAGCGCCATCTAC”, the binding signal is 1.33 RPM ratio (pull-down/input).

“GATGATTGTTCTCCCAGCTGATGAATTGCATTTGTCGAGTAAACAAATTTTCCTAATCTTTCTGTTCAAGCGCCATCTAC”: the binding signal is 1.43 RPM ratio (pull-down/input).

For the sequence “GATGATTGTTCTCCCAGCTGATGAATTGACACTGTCGAGTAAACAAATTTTCCTAATCTTTCTGTTCAAGCGCCATCTAC”, the binding signal was 1.08 RPM ratio (pull-down/input).

On to “GATGATTGTTCTCCCAGCTGATGAATTTACCGAATCGAGTAAACAAATTTTCCTAATCTTTCTGTTCAAGCGCCATCTAC”, for which the binding signal is 1.37 RPM ratio (pull-down/input).

With “GATGATTGTTCTCCCAGCTGATGAATTATCTTTCTCGAGTAAACAAATTTTCCTAATCTTTCTGTTCAAGCGCCATCTAC”, the binding signal was 0.948 RPM ratio (pull-down/input).
